About 4,000 (4.3%) of roughly 94,000 compounds were called active. The inconclusive results got no clear call from the source; some entries with a clear call stand among them for comparison. The call rests on the fitted dose curve; in most records, active means well fitted inhibition curve with a large enough effect; inconclusive means small, poorly fitted or top-dose-only effect; inactive means no such curve, though single readings can be large or run the other way. Potencies of inconclusive entries are doubtful fits and often do not repeat.
assay: Cytotoxic Profiling in NIH 3T3 Cell Line of Diverse Libraries Using Quantitative High-Throughput Screening; conditions: NIH 3T3 viability, CellTiter-Glo ATP luminescence, 48-72 h; activity change, negative = cytotoxicity: at 96.7 µM (top of the series) unless noted; series mostly up to 96.7 µM; further: nearly all actives have a fitted effect of over 55% in size
In short: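 First NIH 3T3 cells are plated at 400 cells/well; next compound is pinned in; then plates incubate 48 or 72 hr at 37 °C; finally CellTiter-Glo is added and luminescence read after 10 min.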
On the % scale 0 is the no-effect control and ±100 the full control effect; potency means the concentration at half of the fitted maximal effect; tags describe the fitted curve by direction and shape.

| SMILES | Potency | activity change, negative = cytotoxicity |
| --- | --- | --- |
| CCN1c2cc(C(=O)Nc3ccc(C)cc3)ccc2C(=O)N2CCCC21 (configuration not stated) | inactive |  |
| CCCCc1nc2cc(C(=O)N3CCCC3c3cc(C(C)C)on3)ccc2o1 (configuration not stated) | inconclusive: 20 µM [inhibitor, full curve] |  |
| CC(C)C[C@@H]1N[C@H](C(=O)NCc2cccs2)Cc2cn(CC3CC3)c3cccc1c23 | active: 70.8 µM |  |
| C[C@]1(CO)[C@H]2Cc3sc(NC(=O)c4ccc(F)cc4)nc3[C@@H](CC(=O)NC3CCCC3)[C@]2(C)CC[C@H]1O | active: 44.7 µM |  |
| CCN(CC1CCOCC1)C(=O)C1(Oc2ccc(C)cc2)CCNCC1 | inactive |  |
| C#CCNC(=O)C1CCCN(Cc2cccc(-c3cccs3)c2)C1 (configuration not stated) | inconclusive: 44.7 µM [inhibitor, partial curve, poor fit] |  |
| NCc1cccc(-c2cc(F)cc(F)c2)c1 | active: 89.1 µM |  |
| CN(C)C[C@@H]1CN(Cc2ccccc2)C[C@H]1NC(=O)NCc1ccco1 | inactive |  |
| CCOc1ccccc1C(=O)NC1CCN(c2cc(-c3cccs3)[nH]n2)C1 (configuration not stated) | inconclusive: 44.7 µM [inhibitor, partial curve, poor fit] |  |
| O=C(NCC1CCCN(C(=O)c2cc(=O)[nH]c(=O)[nH]2)C1)c1cccs1 (configuration not stated) | inactive |  |
| CC(C)N1C(=O)C2(CCCC2)C1C(=O)N1CCN(C2CCCCC2)CC1 (configuration not stated) | inactive |  |
| O=C([C@@H]1C[C@H](c2ccc(F)cc2)N([S+](=O)([O-])C2CC2)C1)N1CCN(c2ccccn2)CC1 | inconclusive: 10 µM [inhibitor, full curve] |  |
| Cc1ccc(OCc2nc(C3CCN(C(=O)c4noc(C)c4CN4CCCCC4)CC3)no2)cc1 | active: 31.6 µM |  |
| O=C(c1cccc(Br)c1)N1CCN(c2cc(-c3cccs3)[nH]n2)CC1 | inconclusive: 11.2 µM [inhibitor, full curve, poor fit] |  |
| CC(=O)N1CC2(Cc3ccccc31)CN(C(=O)NC1CCCC1)C2 | inconclusive: 112 µM [inhibitor, partial curve] |  |
| C[C@H]1CCCN1C(=O)c1nnc(CNCCCn2ccnc2)n1-c1ccccc1 | inconclusive: 112 µM [inhibitor, single point] |  |
| O=C(C1CCN(c2nccc(Nc3ccccc3Cl)n2)CC1)N1CCC(c2ccccc2)CC1 | active: 39.8 µM |  |
| CCn1cc(-c2ccncc2)cc1C(=O)NCc1cccc(F)c1 | inconclusive: 50.1 µM [inhibitor, partial curve, poor fit] |  |
| Cc1nc(-c2ccc(F)cc2)n(CC(=O)Nc2ccc(C(C)C)cc2)c(=O)c1CCO | inconclusive: 22.4 µM [inhibitor, full curve, poor fit] |  |
| COCC(=O)N1CCCC(C(=O)N2CCC(c3nc4ncccc4[nH]3)C2)C1 (configuration not stated) | inactive |  |
| Cc1cccc(-c2cccc(CN3CCC(N[S+](C)(=O)[O-])CC3)c2)c1 | inconclusive: 50.1 µM [inhibitor, partial curve, poor fit] |  |

| SMILES | Potency | activity change, negative = cytotoxicity |
| --- | --- | --- |
| O=C(CCCc1c[nH]c2ccccc12)N1CCc2c(nc3cc(-c4ccccc4)[nH]n3c2=O)C1 | inconclusive: 70.8 µM [inhibitor, single point] |  |
| CC(C)N1C[C@@H](COC(C)(C)C)[C@H](c2ccccc2)[S+]1(=O)[O-] | inactive |  |
| CCCC(=O)N1Cc2ccccc2CC2(CCCN(Cc3ccccc3)C2)C1 (configuration not stated) | inconclusive: 56.2 µM [inhibitor, single point] |  |
| CCc1cc(C(=O)N2CCC3(CC2)CC(c2ccccc2)C(=O)N3)cs1 (configuration not stated) |  | inconclusive: -30.3% [inhibitor] |
| O=C(NC1C[C@H]2CC[C@@H](C1)N2C(=O)CCCc1ccccc1)c1ccc(F)cc1 (some centres not stated) | inconclusive: 12.6 µM [inhibitor, full curve, poor fit] |  |
| CNC(=O)C(C)N(C)C(=O)c1coc(COc2ccc3ccc(OC)cc3c2)n1 (configuration not stated) | inconclusive: 39.8 µM [inhibitor, partial curve] |  |
| O=C(CCC1CCN(c2cc(NC3CC3)ncn2)CC1)N1CCN(c2ccccc2F)CC1 | inconclusive: 35.5 µM [inhibitor, partial curve, poor fit] |  |
| Cc1cccc(CN2CCC3(CC2)OC(=O)N(Cc2cccnc2)C3(C)c2ccccc2)c1 (configuration not stated) | inconclusive: 50.1 µM [inhibitor, partial curve, poor fit] |  |
| CC1=NS(=O)(=O)N(Cc2ccccc2)C=C1C(=O)OCc1nc(-c2ccccc2F)no1 | inconclusive: 44.7 µM [inhibitor, partial curve, poor fit] |  |
| O=C(Cc1ccsc1)NC1CCCN(c2cc(-c3ccc(F)cc3)[nH]n2)C1 (configuration not stated) | inconclusive: 50.1 µM [inhibitor, partial curve, poor fit] |  |
| Fc1ccc(-c2ccc3ncc(Nc4ccc5c(c4)OCCO5)n3n2)cc1 | inconclusive: 100 µM [inhibitor, single point] |  |
| CC(C)Oc1ccc2c(NC(=O)c3cccnn3)nn(CC(F)(F)F)c2c1 | inconclusive: 89.1 µM [inhibitor, single point] |  |
| COc1cccc(CN2C(=O)CCCCC2C(=O)NCCCN2CCc3ccccc3C2)c1 (configuration not stated) | inactive |  |
| Cc1oc(C(O)c2cncnc2)nc1C(=O)Nc1cccc([S+](C)(=O)[O-])c1 (configuration not stated) | inconclusive: 50.1 µM [inhibitor, partial curve, poor fit] |  |
| O=C(NCc1ccc(F)cc1F)C1CCN(C(=O)c2ccc(-c3cncnc3)cc2)CC1 | inactive |  |
| Cc1noc(-c2cn(C3CCN(C(=O)c4ccc[nH]4)CC3)nn2)n1 | inconclusive: 35.5 µM [inhibitor, partial curve, poor fit] |  |
| Cc1noc(C)c1-c1cc2cc(CN(C)C)oc2c(NCCc2ccccc2)n1 | active: 44.7 µM |  |
| Cn1c(=O)n([C@@H]2CCN(C(=O)CCc3nc4ccccc4s3)C2)c2ncccc21 | inconclusive: 50.1 µM [inhibitor, partial curve, poor fit] |  |
| COc1ccc(C(=O)N2CCC(N3C(=O)[C@H]4CN(Cc5ccccc5)C[C@H]4C3=O)CC2)cc1 | inconclusive: 63.1 µM [inhibitor, partial curve, poor fit] |  |
| Cc1ccc(O)c(CN2CC[C@@H](c3ccc(F)cc3)[C@H](O)C2)c1 | inconclusive: 39.8 µM [inhibitor, partial curve] |  |
| O=C(Cc1ccc(F)cc1)NC1CCN(Cc2ccc(-c3ccsc3)cc2)C1 (configuration not stated) | inconclusive: 20 µM [inhibitor, partial curve] |  |

| SMILES | Potency | activity change, negative = cytotoxicity |
| --- | --- | --- |
| Nc1ncccc1CN1CC[C@@H]2OCC(=O)N(Cc3ccc(O)cc3)[C@H]2CC1 | inconclusive: 22.4 µM [inhibitor, full curve, poor fit] |  |
| CCN1Cc2ccccc2N(CC(O)Cc2ccccc2)CCC1=O (configuration not stated) | inconclusive: 50.1 µM [inhibitor, partial curve, poor fit] |  |
| Cc1cccc(CN2CCCC(O)(CN3CCNC(=O)C3(C)C)C2=O)c1 (configuration not stated) | inactive |  |
| COc1ccc(-c2nc3cc(C)ccc3cc2CN2CCC[C@@H]2CO)cc1OC | inconclusive: 39.8 µM [inhibitor, full curve] |  |
| O=C(C1CCCN1C(=O)c1ccccc1F)N1CCC(c2nc3ccncc3[nH]2)CC1 (configuration not stated) | inactive |  |
| O=C(NCC(=O)N1CCCCC1)c1ccc(-c2cnc3ccccc3c2)cc1 | inconclusive: 56.2 µM [inhibitor, partial curve, poor fit] |  |
| O=C1Cc2c(-c3ccccc3OCc3ccccc3)n[nH]c2CN1Cc1ccccc1 | inconclusive: 25.1 µM [inhibitor, full curve] |  |
| CN(C)c1cccc(C(=O)N2CCNc3cnc(Nc4cccc(C(F)(F)F)c4)nc3C2)c1 | inconclusive: 44.7 µM [inhibitor, partial curve, poor fit] |  |
| CC1(C)[C@H](Cc2cc(CN3CCCCC3)on2)C[C@@H]1NC(=O)c1cccc(F)c1 | inconclusive: 50.1 µM [inhibitor, partial curve] |  |
| NC(=O)c1cccnc1N1CCC2(CCCN(Cc3ccccc3F)C2)C1 (configuration not stated) | inactive |  |
| CC1Oc2ccc(NC(=O)CC(C)(C)C)cc2CN(Cc2ccccc2F)C1=O (configuration not stated) | inconclusive: 50.1 µM [inhibitor, partial curve, poor fit] |  |
| Cc1noc(C)c1C1CCCN1Cc1cn(-c2ccccc2)nn1 (configuration not stated) | inconclusive: 89.1 µM [inhibitor, single point] |  |
| Cc1ccc(C2NC(=O)N(CC(=O)Nc3ccccc3)C3=C2C(=O)OC3)cc1 (configuration not stated) | inconclusive: 44.7 µM [inhibitor, partial curve, poor fit] |  |
| Cc1nc2c(c(-c3ccc(Cl)cc3)n1)CCN(C(=O)c1ccc(F)cc1)CC2 | inconclusive: 50.1 µM [inhibitor, partial curve, poor fit] |  |
| O=C(N[C@H]1[C@@H]2CCO[C@@H]2[C@@H]1C1CCCC1)c1ncc(F)cc1F | inconclusive: 56.2 µM [inhibitor, partial curve, poor fit] |  |
| C=CCN(Cc1ccc(C#N)cc1)Cc1cccnc1 | inconclusive: 70.8 µM [inhibitor, partial curve, poor fit] |  |
| CN1CCCCCCN(S(=O)(=O)c2cccc(F)c2)CCC1=O | inconclusive: 31.6 µM [inhibitor, partial curve, poor fit] |  |
| COc1cccc(-c2cccc(C(=O)N3CCN(C(=O)c4ccc(F)cc4)CC3)c2)c1 | inconclusive: 39.8 µM [inhibitor, partial curve, poor fit] |  |
| COc1cccc(CNC(=O)C2Cn3cccc3C(=O)N2Cc2ccccc2)c1OC (configuration not stated) | inactive |  |
| O=C([C@@H]1C[C@H](Oc2ccccc2)CN1C(=O)CCCc1ccccc1)N1CCCC1 | inconclusive: 44.7 µM [inhibitor, partial curve, poor fit] |  |

From PubChem BioAssay AID1345082 (National Center for Advancing Translational Sciences (NCATS), 2018)
